Data from the BET-seq Pho4 binding data (Le et al. 2018).
The list shows a part of the results. These are noisy estimates, calculated here from bound and input reads.

Each sequence was assayed against T1, Pho4 (S. cerevisiae) (UniProt P07270) (assay: relative binding free energy (BET-seq); higher = weaker binding). Details: reference: library average.
T1 sequence: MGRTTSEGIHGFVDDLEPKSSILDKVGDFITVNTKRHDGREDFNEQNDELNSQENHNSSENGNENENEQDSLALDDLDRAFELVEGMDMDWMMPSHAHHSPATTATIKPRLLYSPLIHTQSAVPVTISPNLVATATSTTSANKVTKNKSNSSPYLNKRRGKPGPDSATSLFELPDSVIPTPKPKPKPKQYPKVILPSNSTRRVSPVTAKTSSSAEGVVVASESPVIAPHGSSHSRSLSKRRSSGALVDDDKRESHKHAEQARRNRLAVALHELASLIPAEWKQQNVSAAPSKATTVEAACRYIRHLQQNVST

Relative binding free energy, -0.2 kcal/mol:
ACGGGCACGTGGGAGT
GGCAGCACGTGGTGCG

Relative binding free energy, -0.08 kcal/mol:
TCATGCACGTGGTCGG
GATGGCACGTGGCGGT

Relative binding free energy, -0.26 kcal/mol:
GTCAGCACGTGGGTGC

Relative binding free energy, -0.03 kcal/mol:
GACGGCACGTGGGAGC
CTATACACGTGTTTTG
TTCCACACGTGGGTGT
GGGGCCACGTGGTTAG
TTGTGCACGTGTTATG

Relative binding free energy, -0.09 kcal/mol:
TAGACCACGTGTGTGG
TCGAACACGTGGTGTA
TTTAACACGTGCTATG
TCTGTCACGTGGTCTT

Relative binding free energy, -0.11 kcal/mol:
GAGAGCACGTGGGGAT
TACGGCACGTGTAGGT
ATAGGCACGTGTCCGG
GTATACACGTGGGTAA
GTAGCCACGTGTGTTG
TTTAACACGTGGGGGT
AGGGACACGTGGCGCG

Relative binding free energy, 0.36 kcal/mol:
CTTATCACGTGAAGGT
GTTTTCACGTGAGTGA

Relative binding free energy, 0.12 kcal/mol:
TTTTACACGTGTACTA
GGTTGCACGTGTAACG
CGGGACACGTGTGAAG
TGTTGCACGTGATCGA
GATGTCACGTGGTCAG
TTGTACACGTGTGCCT
GTTTGCACGTGTGAGG

Relative binding free energy, 0.29 kcal/mol:
TGATTCACGTGAGGCA

Relative binding free energy, -0.19 kcal/mol:
ACGTGCACGTGGTGTG

Relative binding free energy, 0.18 kcal/mol:
GGTCTCACGTGGTATG
CGGTACACGTGTTGGG
GTTTACACGTGTTTGT
GGTGTCACGTGTCGGT

Relative binding free energy, -0.18 kcal/mol:
AGGCGCACGTGGTGTA
CGGGCCACGTGGGGTT

Relative binding free energy, 0.34 kcal/mol:
TCGGTCACGTGATGTG
GTAGTCACGTGAAGTA
GGGGTCACGTGATAGT
TTTTTCACGTGTGCAC

Relative binding free energy, 0.31 kcal/mol:
ACTGTCACGTGAGGAT

Relative binding free energy, -0.07 kcal/mol:
TCTAGCACGTGTATGT
TAGACCACGTGGGATG
TGATGCACGTGGGAAA
TTAGACACGTGGTGGA

Relative binding free energy, 0.23 kcal/mol:
TTAGCCACGTGAGGGG
AGTTTCACGTGGGTAG

Relative binding free energy, 0.13 kcal/mol:
GATGACACGTGCTTGG
ATACTCACGTGGGTGG
TGTTTCACGTGCGTCA

Relative binding free energy, -0.02 kcal/mol:
GTCTGCACGTGGTACT
ATTTGCACGTGTAGGG
TTAAGCACGTGTATAT
TTTTGCACGTGGCTGT
TAGGACACGTGGTGAG

Relative binding free energy, -0.04 kcal/mol:
TGGCGCACGTGGAGGA
GCTTACACGTGGGTTG

Relative binding free energy, 0.24 kcal/mol:
GGGGTCACGTGACTGG
GTATACACGTGGTTGC
TGTTGCACGTGAGTAG
TGTATCACGTGACGAT
AGAGACACGTGATGGC
CGTTCCACGTGAGGTT

Relative binding free energy, 0.2 kcal/mol:
TTGTGCACGTGAGTGG
GATGGCACGTGTGGTG

Relative binding free energy, 0.06 kcal/mol:
CGATACACGTGGGGTC
AGTGTCACGTGCAAAG
TGGAACACGTGTGTTA

Relative binding free energy, 0.22 kcal/mol:
TTTTACACGTGTGTAA
TGTCTCACGTGTATAG
GTCATCACGTGGTTCG
GGCGTCACGTGTTGTT
GATATCACGTGAGTTG

Relative binding free energy, -0.21 kcal/mol:
ACTGCCACGTGGGGTG

Relative binding free energy, -0.01 kcal/mol:
GTGAGCACGTGCGTGT
GTTTGCACGTGGGAAT
GTGGACACGTGGTGCT
ATAACCACGTGTGGTT
GGTCACACGTGGGTGC
ATTTACACGTGCTGGT
CAAGGCACGTGGCTGG

Relative binding free energy, -0.12 kcal/mol:
GACTGCACGTGGGTAT
GCAATCACGTGGGGTT
TGGCGCACGTGTGGCG
TTAGGCACGTGTGAAA
GCGTGCACGTGCGAGG

Relative binding free energy, 0.49 kcal/mol:
AAGTTCACGTGAGAGT

Relative binding free energy, 0.09 kcal/mol:
ATTGTCACGTGGCAAG
TATGTCACGTGTATTT
TAGATCACGTGCGTGG
GGTGTCACGTGTTTTA
ACTTGCACGTGTTGGA
TCAGGCACGTGTGGAT
TGACTCACGTGGGAGG
TGTCACACGTGGTTAT

Relative binding free energy, 0 kcal/mol:
AGGAGCACGTGTGAGG
TTTCGCACGTGCAGTT
TTTGGCACGTGGCCGT
TTTCCCACGTGGTTTT
ATGGACACGTGTTTAA
GGAGTCACGTGTCGTT

Relative binding free energy, -0.05 kcal/mol:
TAAAACACGTGGTTAG
CTAGACACGTGGCGGG
AGGCGCACGTGTACGT
TTGCGCACGTGTTAGG
AAATGCACGTGGCTGT
ATTTGCACGTGCCGGT

Relative binding free energy, -0.17 kcal/mol:
ATGAGCACGTGCGTTT
ATGGCCACGTGGGATG
TGTGACACGTGGGTTT

Relative binding free energy, 0.16 kcal/mol:
ATGGACACGTGTAAGT
CGTAACACGTGAGGGG
TGTATCACGTGTCTAT
ATTTTCACGTGGGTCT

Relative binding free energy, 0.25 kcal/mol:
GTAAGCACGTGAGGAG
GTTGTCACGTGTGTGA
CAGGTCACGTGAGGGC
TGACTCACGTGTTAAT
TGGGTCACGTGAAGTG

Relative binding free energy, 0.01 kcal/mol:
AAGGTCACGTGGGAAG
AGAGACACGTGTAGTA
TGAACCACGTGTTTGG
TTGTACACGTGGTGGT
AGGTGCACGTGGAAAG

Relative binding free energy, 0.21 kcal/mol:
TGGGACACGTGAGAGA
GGGGACACGTGTGGGT
CGCTTCACGTGGAGGG
ATTGTCACGTGAATAT
TGATTCACGTGGATAG

Relative binding free energy, 0.33 kcal/mol:
GTAATCACGTGAGGGG

Relative binding free energy, -0.13 kcal/mol:
TGTTGCACGTGCTCTA
AGGGCCACGTGTTTGG

Relative binding free energy, 0.32 kcal/mol:
CTGTTCACGTGTTAAT
GTTAGCACGTGAGAGT

Relative binding free energy, 0.03 kcal/mol:
ATGGACACGTGGGAGC
TTTCGCACGTGCGGAT
GCTTGCACGTGGTTGA
TCGGGCACGTGGAGTT

Relative binding free energy, -0.24 kcal/mol:
TATTGCACGTGGCATA

Relative binding free energy, 0.11 kcal/mol:
GAAAACACGTGTTTTT
ATCTTCACGTGGCGTG
ATCGGCACGTGACGGT
TTAGTCACGTGGGAGG
AGTGTCACGTGTCTGG
GGGCGCACGTGTGGGG

Relative binding free energy, 0.14 kcal/mol:
GTTGCCACGTGTGATG
CTCGGCACGTGAGGAG
TGTTCCACGTGATCGT
TGAGTCACGTGCCGGT
GTAAACACGTGGGGAA
GTTATCACGTGGACGT
ATGATCACGTGTAAGT
AGTGTCACGTGATTCA
CTTGTCACGTGCTGCG
GGGATCACGTGGTTAA

Relative binding free energy, 0.3 kcal/mol:
TGGAACACGTGAGTGT
GCTGGCACGTGAAGGG

Relative binding free energy, 0.1 kcal/mol:
TAGGTCACGTGGTATC
TGGGTCACGTGCTGCT
TTGTTCACGTGCTATA

Relative binding free energy, 0.04 kcal/mol:
TTGTCCACGTGGAGGC
TACAGCACGTGTGGTA
TTAGTCACGTGGAGGT
TGAGGCACGTGTTTGG
CATAGCACGTGATGGG

Relative binding free energy, 0.08 kcal/mol:
TAACGCACGTGTGGAG
TTGTACACGTGCTCGG
TACGTCACGTGTGGGA
TGTGCCACGTGTAGAT

Relative binding free energy, 0.05 kcal/mol:
TGTGACACGTGTAATG
CAGTGCACGTGATTTG
GTATACACGTGGTGCT
CTAGGCACGTGAGGGT
GCAGTCACGTGTAGGT
AGGGTCACGTGGGTGC
TCATCCACGTGTTGTT

Relative binding free energy, 0.52 kcal/mol:
GAGTTCACGTGGATGC

Relative binding free energy, 0.28 kcal/mol:
TTGGTCACGTGTGGGG
GGATTCACGTGGTGGT
TGAGTCACGTGGATGT

Relative binding free energy, -0.14 kcal/mol:
GCGGGCACGTGTGCGT
ATGGGCACGTGGCGTG
TCGGACACGTGGGGGG

Relative binding free energy, -0.16 kcal/mol:
TGGCACACGTGGGTAT
GGGTCCACGTGGGTTC
TGCGGCACGTGTCGTT
TTGGGCACGTGTCTGA

Relative binding free energy, -0.15 kcal/mol:
CGTGACACGTGGCGGG
TGTAGCACGTGGGATA

Relative binding free energy, 0.38 kcal/mol:
GGGTACACGTGACTGA
GGAGTCACGTGATCAT
CGGTTCACGTGAGGTT

Relative binding free energy, 0.39 kcal/mol:
TTCATCACGTGAGCGG

Relative binding free energy, -0.06 kcal/mol:
AGTATCACGTGGTCAT
ACGGGCACGTGTGATG
GGAGGCACGTGTGCTA

Relative binding free energy, 0.07 kcal/mol:
ATTTGCACGTGATGTG
GATAGCACGTGTGGAG
ATAGTCACGTGTATGA
TTGGTCACGTGGGGAT
GGGAACACGTGGTGAG
GGTTCCACGTGGCATT
TGGTGCACGTGTCGTC
GTTTACACGTGGGAGC
TGGTACACGTGTTTTT
CTGATCACGTGGGCTT
GGCTTCACGTGGGGGG
GCGTGCACGTGTGGGA

Relative binding free energy, -0.1 kcal/mol:
AGTTCCACGTGGTTTG
AGTGGCACGTGTGTTG

Relative binding free energy, 0.26 kcal/mol:
GATTTCACGTGGGGGA

Relative binding free energy, 0.02 kcal/mol:
TGCGTCACGTGTTAGG
CGGTGCACGTGTGGGC
TGTTCCACGTGTTGTC
TATATCACGTGTTCTT
TTGCTCACGTGGTGGC
GGTTGCACGTGGTAAT
AAGATCACGTGGTAAT
TCTGTCACGTGCTGGG
TTATGCACGTGCACTT
AGTGGCACGTGATCTG

Relative binding free energy, -0.23 kcal/mol:
CTAGACACGTGGGTTG

Relative binding free energy, 0.15 kcal/mol:
TCGTGCACGTGAGTGT
TTAATCACGTGTGCGA
ACGTTCACGTGGGAGG

Relative binding free energy, 0.19 kcal/mol:
GGGAACACGTGAGCGT

Relative binding free energy, 0.17 kcal/mol:
ATTCTCACGTGCTTGG
TATATCACGTGTGGTG
